Several values for one entry are separate records, joined by “and”; a condition that tells them apart may be missing. Equal values may be shown once. Screen size: about 210,000 compounds; about 5,900 (2.8%) were called active. The shares of active, inactive and inconclusive entries below differ from those in the screen. The call rests on the fitted dose curve; in most records, active means well fitted activation curve with a large enough effect; inconclusive means small, poorly fitted or top-dose-only effect; inactive means no such curve, though single readings can be large or run the other way. A potency beside an inconclusive call is a rough fit, not a confirmed value.
Experiment: qHTS Assay for Enhancers of SMN2 Splice Variant Expression; further: nearly all actives have a fitted effect of over 55% in size; on activity change, positive = activation: % of control where 0% means no effect
Settings: HEK293 SMN2-luciferase splicing reporter, luminescence, 30-36 h; activity change, positive = activation: at 46.1 µM (top of the series)
Summary of the method: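 HEK293 cells carry an SMN2 […]–luciferase reporter in which exon 7 inclusion puts luciferase in frame. Cells were plated 10-12 h before compound addition, then incubated 30-36 h at 37C. ONE-Glo luminescence was read; sodium butyrate at 4.5 mM final served as control.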
Potency means the concentration at half of the fitted maximal effect; tags describe the fitted curve by direction and shape.

Compound | Potency | activity change, positive = activation
O=C1NC(=O)C(CCc2ccncc2)(C2CCCCC2)C(=O)N1 | inconclusive: 15.8 µM [activator, partial curve, poor fit] | –
COc1ccc(NC2=NC(C)(C)CS2)cc1 | active: 11.2 µM | –
O=C(CSc1ccccc1)N1CCC2(CC1)OCCO2 | active: 12.6 µM | –
CCSc1cc(C2C(C#N)=C(N)Oc3n[nH]c(C)c32)c(C)o1 (stereo not given) | inconclusive: 3.55 µM [activator, full curve] | –
COc1cccc(NC(=O)N2CCC3(CC2)OCCO3)c1 | inconclusive: 11.2 µM [activator, partial curve] | –
COc1ccc(OC)c(NC(=O)Cn2cc(C(=O)c3ccccc3F)c3ccccc32)c1 | inconclusive: 17.8 µM [activator, single point] | –
CCCCOC(=O)C1=C(N)OC2=C(C(=O)CCC2)[C@]12C(=O)N(C)c1ccccc12 | inconclusive: 0.708 µM [activator, full curve] | –
O=C(Nc1ccc2c(c1)OCO2)N1CCN(c2ccccc2)CC1 | inconclusive: 35.5 µM [activator, single point] | –
COc1ccccc1C1=NCc2nnc(C)n2-c2ccc(Cl)cc21 | inconclusive: 22.4 µM [activator, single point] | –
CCCSc1ccc2nc(NC(=O)OC)[nH]c2c1 | inconclusive: 5.01 µM [activator, partial curve] | –
CCOc1ccc(Oc2nc(NCC(C)C)nc(N(C)C)n2)nn1 | inconclusive: 0.0447 µM [activator, full curve, poor fit] | –
O=C(O)C(C(=O)O)P(=S)(S)c1ccccc1 (stereo not given) | – | inactive: 1.42% [at 9.22 µM]
Cc1ccc(O)cc1C | inactive | –
O=P(C(c1ccc2c(c1)OCO2)N1CCOCC1)(N1CCOCC1)N1CCOCC1 (stereo not given) | inactive | –
CC(Cc1ccccc1)NC(=O)/C=C/C(=O)O (stereo not given) | inactive | –
Clc1cc(Cl)c(Cl)c(Cl)c1 | inactive | –
CCn1c(O)c(C=Nc2cc(Cl)ccc2Cl)c(=O)n(CC)c1=O | inconclusive: 17.8 µM [activator, single point] | –
CSCCC(N=Cc1c(O)n(-c2ccc(Cl)cc2)c(=O)[nH]c1=O)C(=O)OC(C)(C)C (stereo not given) | inconclusive: 3.55 µM [activator, full curve] | –
N/C(=N\N=C/c1ccc(-c2ccc(O)c(C(=O)O)c2)o1)N[N+](=O)[O-] | inactive | –
CCC(=NCCC(c1ccccc1)c1ccccc1)c1c(O)n(C)c(=O)n(C)c1=O | inactive | –
COc1ccc(NC(=O)CCCn2c(=O)oc3ccccc32)cc1Cl | inconclusive: 35.5 µM [activator, single point] | –
CN1C(=O)C(=Cc2ccc(N3CCOCC3)o2)C(=O)N(C)C1=O | inconclusive: 12.6 µM [activator, single point] | –
CCOc1ccc(NC(=O)C(=S)NC2CCCCC2)cc1 | inconclusive: 28.2 µM [activator, single point] | –
CCOC(=O)C1=C(N)Oc2cc(C)oc(=O)c2C12C(=O)N1c3c(cc(OC)cc32)C(C)=CC1(C)C (stereo not given) | inconclusive: 0.316 µM [activator, full curve, poor fit] | –

Compound | Potency | activity change, positive = activation
COc1cc2[nH]c(=O)[nH]c(=O)c2cc1OC | inconclusive: 5.01 µM [activator, single point] | –
CNCC(O)c1ccc(O)cc1 (stereo not given) | inconclusive: 0.708 µM [activator, full curve, poor fit] | –
Cc1ccc(-n2c(=O)c3ccc(C(=O)NCc4ccccc4Cl)cc3n(CC(=O)Nc3cccc(Cl)c3)c2=O)cc1 | inconclusive: 0.1 µM [activator, full curve] | –
O=c1c(C=NCCN2CCNCC2)c(O)n(C2CCCCC2)c(=O)n1C1CCCCC1 | inconclusive: 0.0079 µM [activator, full curve, poor fit] | –
Nc1ccc(Oc2ccc(N)cc2)cc1 | inactive | –
CN1CCN(CC(=O)Nc2ccc(Cl)cc2C(=O)c2ccccc2)CC1 | inconclusive: 15.8 µM [activator, partial curve, poor fit] | –
CC(=O)c1ccc(-c2ccccc2)cc1 | inconclusive: 3.55 µM [activator, full curve] | –
NP(=O)(Oc1ccccc1Cl)Oc1ccccc1Cl | inconclusive: 1.12 µM [activator, partial curve, poor fit] | –
Nc1c(C(=O)Nc2cccc(F)c2)sc2nc(-c3cccs3)ccc12 | inconclusive: 14.1 µM [activator, partial curve] | –
Cc1nn(-c2ccccc2)c(Cl)c1/C=N\NC(=O)c1cnccn1 | inconclusive: 12.6 µM [activator, partial curve, poor fit] | –
NCC(CP(=O)(O)O)c1ccc(Cl)cc1 (stereo not given) | inconclusive: 20 µM [activator, partial curve, poor fit] | –
Nc1ccc(N2CCN(Cc3ccccc3Cl)CC2)c(Cl)c1 | inconclusive: 2.82 µM [activator, partial curve, poor fit] | –
CCCCn1c(C)c(C(=O)OCC)c2c(CN3CCOCC3)c(O)ccc21 | inconclusive: 3.55 µM [activator, partial curve] | –
Cc1ccc(Cn2cc(C=O)c(-c3ccc(C)cc3)n2)cc1 | inconclusive: 35.5 µM [activator, single point] | –
C=CCn1c(O)c(C(CC)=Nc2cc(OC)ccc2OC)c(=O)[nH]c1=O | inconclusive: 8.91 µM [activator, partial curve] | –
O=C(O)[C@H]1[C@H]2CN[C@H](C(=O)O)[C@H]21 | inconclusive: 1.41 µM [activator, full curve, poor fit] | –
CCOc1ccc2nc(N3CCC(C(=O)Nc4ccc(Br)cc4F)CC3)sc2c1 | active: 12.6 µM | –
Cc1cc(C)n2nc(SC(C)C(=O)N3CCC4(CC3)OCCO4)nc2n1 (stereo not given) | inconclusive: 14.1 µM [activator, single point] | –
Cc1ccc2cc3c(ccc4ccccc43)c3c2c1CC3 | inactive | –
CCCOC(=O)c1cc2c(cn1)[nH]c1ccccc12 | active: 28.2 µM | –
CCOC(=O)c1c(C)n(Cc2ccc3c(c2)OCO3)c2ccc(O)cc12 | inconclusive: 3.16 µM [activator, full curve] | –
COc1ccc2c(c1)CC1(CN2C)C(=O)NC(=O)N(c2ccc(C)cc2)C1=O (stereo not given) | inconclusive: 10 µM [activator, partial curve, poor fit] | –
CCc1cc2c(=O)n(C(C)C(=O)OC3CCCCC3)cnc2s1 (stereo not given) | active: 11.2 µM | –
CCCCCCCCCCCCCC(=O)O[C@@H]1[C@@H](C)[C@@]2(O)[C@H](C=C(CO)C[C@]3(O)C(=O)C(C)=C[C@@H]23)[C@@H]2C(C)(C)C12OC(C)=O (stereo not given in full) | inactive | –

Compound | Potency | activity change, positive = activation
CCOc1ccccc1Oc1coc2cc(OC(=O)c3ccco3)ccc2c1=O | inconclusive: 3.16 µM [activator, partial curve, poor fit] | –
O[N+]1=CC=CCC1=S.On1ccccc1=S.[Zn] | inactive | –
N#CC(C#N)=Cc1ccc(O)c(O)c1 | inconclusive: 35.5 µM [activator, single point] and inconclusive: 3.98 µM [activator, full curve, poor fit] | –
O=C1N[C@@]2(CN3CCC2CC3)C(=O)N1CN(Cc1ccccc1)c1ccccc1 | – | inactive: 1.87% [at 9.22 µM]
CCn1c(O)c(/C(C)=N/N2CCCCC2c2cccnc2)c(=O)[nH]c1=S (stereo not given) | inconclusive: 10 µM [activator, partial curve, poor fit] | –
O=C(NCP(=O)(O)O)c1cccnc1 | – | inactive: -2.82% [at 9.22 µM]
CC(O)CCl (stereo not given) | inactive | –
COc1ccc(N2C(=O)/C(=C/C=C/c3ccccc3[N+](=O)[O-])C(=O)NC2=S)cc1 | inactive | –
Cc1ccc(OCC(=O)N2CCN(C)CC2)c(Br)c1 | inconclusive: 8.91 µM [activator, partial curve, poor fit] | –
O=C(Oc1c(Cl)cc(Cl)c2ccccc12)N1CCCCC1 | inactive | –
CSCC[C@H](NC(=O)[C@H](Cc1ccccc1)NC(=O)CNC(=O)CNC(=O)[C@@H](N)Cc1ccc(O)cc1)C(=O)O | inactive | –
C(=C\c1ccccc1)/CN1CCN(Cc2ccc3c(c2)OCCO3)CC1 | inconclusive: 6.31 µM [activator, single point] | –
O=c1c2ccccc2[se]n1-c1ccccc1 | inactive | –
Cc1ccc(-c2nc(NC(=O)c3ccc(S(=O)(=O)N(CCC#N)CCC#N)cc3)sc2-c2ccccc2)cc1 | inconclusive: 3.55 µM [activator, single point] | –
CCn1c(O)c(C=Nc2ccc(N3CCOCC3)c(Br)c2)c(=O)n(CC)c1=S | inactive | –
C#CC[N+]1(C)C2CCC1CC(O)C2 (stereo not given) | inconclusive: 0.004 µM [activator, full curve, poor fit] | –
Cc1nc(CCl)cc(=O)[nH]1 | inconclusive: 14.1 µM [activator, partial curve, poor fit] | –
Nc1nc(SCc2ccc(Cl)cc2Cl)n[nH]1 | inconclusive: 4.47 µM [activator, full curve] | –
O=c1[nH]c(=O)n(Cc2ccc(F)cc2)c(O)c1C=NCCCO | inactive | –
CN(C)C(=O)Oc1ccnc2cc(Cl)ccc12 | inconclusive: 11.2 µM [activator, partial curve, poor fit] | –
Cc1cccc(N2C(=O)/C(=C/c3ccc(N4CCN(C)CC4)o3)C(=O)NC2=S)c1C | inconclusive: 35.5 µM [activator, single point] | –
CCC(=NCCCN(C)C)c1c(O)n(-c2ccc(OC)cc2)c(=O)[nH]c1=O | inactive | –

Source: PubChem BioAssay AID1458 (National Center for Advancing Translational Sciences (NCATS), 2008)
